# Some of the results follow.
# Tests used:
# Assay in all cases: glycan array binding signal (z-score within array); higher = stronger binding
# Settings in all cases: glycan notation: IUPAC condensed, linker removed
# [1] = target: Gal(b1-4)GlcNAc(b1-2)Man(a1-3)[Gal(b1-4)GlcNAc(b1-2)Man(a1-6)]Man(b1-4)GlcNAc(b1-4)[Fuc(a1-6)]GlcNAc
# Summary of the method: (§1)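 Columns mapping to the same glycan were averaged after glycan names were converted to IUPAC-condensed notation. The data come from 3228 arrays in the Consortium for Functional Glycomics database, limited to those with an available protein sequence. Binding is reported as a within-array Z-score averaged across arrays of one protein sequence and across linkers.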
# [2] = target: Gal(b1-4)GlcNAc(b1-2)Man(a1-3)[Gal(b1-4)GlcNAc(b1-2)Man(a1-6)][Gal(b1-4)GlcNAc(b1-4)]Man(b1-4)GlcNAc(b1-4)[Fuc(a1-6)]GlcNAc
# Summary of the method: as §1
# [3] = target: Gal(b1-4)GlcNAc(b1-2)Man(a1-3)[Gal(b1-4)GlcNAc(b1-2)Man(a1-6)][GlcNAc(b1-4)]Man(b1-4)GlcNAc(b1-4)[Fuc(a1-6)]GlcNAc
# Summary of the method: as §1
# [4] = target: Gal(b1-4)GlcNAc(b1-2)Man(a1-3)[GlcNAc(b1-2)Man(a1-6)]Man(b1-4)GlcNAc(b1-4)GlcNAc
# Summary of the method: as §1
# [5] = target: Gal(b1-4)GlcNAc(b1-2)Man(a1-3)[GlcNAc(b1-4)][Gal(b1-4)GlcNAc(b1-2)Man(a1-6)]Man(b1-4)GlcNAc(b1-4)GlcNAc
# Summary of the method: as §1
# [6] = target: Gal(b1-4)GlcNAc(b1-2)Man(a1-3)[Man(a1-6)]Man(b1-4)GlcNAc(b1-4)GlcNAc
# Summary of the method: as §1
# [7] = target: Gal(b1-4)GlcNAc(b1-2)Man(a1-6)Man(b1-4)GlcNAc(b1-4)GlcNAc
# Summary of the method: as §1
# [8] = target: Gal(b1-4)GlcNAc(b1-2)Man(a1-6)[GlcNAc(b1-2)Man(a1-3)]Man(b1-4)GlcNAc(b1-4)GlcNAc
# Summary of the method: as §1
# [9] = target: Gal(b1-4)GlcNAc(b1-2)Man(a1-6)[Man(a1-3)]Man(b1-4)GlcNAc(b1-4)GlcNAc
# Summary of the method: as §1
# [10] = target: Gal(b1-4)GlcNAc(b1-2)[Gal(b1-4)GlcNAc(b1-4)]Man(a1-3)[Gal(b1-4)GlcNAc(b1-2)Man(a1-6)]Man(b1-4)GlcNAc(b1-4)GlcNAc
# Summary of the method: as §1
# [11] = target: Gal(b1-4)GlcNAc(b1-2)[Gal(b1-4)GlcNAc(b1-4)]Man(a1-3)[Gal(b1-4)GlcNAc(b1-2)[Gal(b1-4)GlcNAc(b1-6)]Man(a1-6)]Man(b1-4)GlcNAc(b1-4)GlcNAc
# Summary of the method: as §1
# [12] = target: Gal(b1-4)GlcNAc(b1-2)[Gal(b1-4)GlcNAc(b1-4)]Man(a1-3)[GlcNAc(b1-4)][Gal(b1-4)GlcNAc(b1-2)Man(a1-6)]Man(b1-4)GlcNAc(b1-4)GlcNAc
# Summary of the method: as §1
# [13] = target: Gal(b1-4)GlcNAc(b1-2)[Gal(b1-4)GlcNAc(b1-4)]Man(a1-3)[GlcNAc(b1-4)][Gal(b1-4)GlcNAc(b1-2)[Gal(b1-4)GlcNAc(b1-6)]Man(a1-6)]Man(b1-4)GlcNAc(b1-4)GlcNAc
# Summary of the method: as §1
# [14] = target: Gal(b1-4)GlcNAc(b1-2)[Gal(b1-4)GlcNAc(b1-6)]Man(a1-6)[Gal(b1-4)GlcNAc(b1-2)Man(a1-3)]Man(b1-4)GlcNAc(b1-4)GlcNAc
# Summary of the method: as §1
# [15] = target: Gal(b1-4)GlcNAc(b1-2)[Gal(b1-4)GlcNAc(b1-6)]Man(a1-6)[Gal(b1-4)GlcNAc(b1-2)Man(a1-3)]Man(b1-4)GlcNAc(b1-4)[Fuc(a1-6)]GlcNAc
# Summary of the method: as §1
# [16] = target: Gal(b1-4)GlcNAc(b1-2)[Gal(b1-4)GlcNAc(b1-6)]Man(a1-6)[GlcNAc(b1-4)][Gal(b1-4)GlcNAc(b1-2)Man(a1-3)]Man(b1-4)GlcNAc(b1-4)GlcNAc
# Summary of the method: as §1
# [17] = target: Gal(b1-4)GlcNAc(b1-2)[Gal(b1-4)GlcNAc(b1-6)]Man(a1-6)[GlcNAc(b1-4)][Gal(b1-4)GlcNAc(b1-2)[Gal(b1-4)GlcNAc(b1-4)]Man(a1-3)]Man(b1-4)GlcNAc(b1-4)[Fuc(a1-6)]GlcNAc
# Summary of the method: as §1
# [18] = target: Gal(b1-4)GlcNAc(b1-3)Gal(b1-3)GalNAc
# Summary of the method: as §1
# [19] = target: Gal(b1-4)GlcNAc(b1-3)Gal(b1-3)GlcNAc
# Summary of the method: as §1
binder,measurement,setting,value
OGAN (protein) MVQKESQATLEERESELSSNPAASAGASLEPPAAPAPGEDNPAGAGGAAVAGAAGGARRFLCGVVEGFYGRPWVMEQRKELFRRLQKWELNTYLYAPKDDYKHRMFWREMYSVEEAEQLMTLISAAREYEIEFIYAISPGLDITFSNPKEVSTLKRKLDQVSQFGCRSFALLFNDIDHNMCAADKEVFSSFAHAQVSITNEIYQYLGEPETFLFCPTEYCGTFCYPNVSQSPYLRTVGEKLLPGIEVLWTGPKVVSKEIPVESIEEVSKIIKRAPVIWDNIHANDYDQKRLFLGPYKGRSTELIPRLKGVLTNPNCEFEANYVAIHTLATWYKSNMNGVRKDVVMTDSEDSTVSIQIKLENEGSDEDIETDVLYSPQMALKLALTEWLQEFGVPHQY,glycan array binding signal (z-score),[1],-0.068
same,glycan array binding signal (z-score),[2],-0.086
same,glycan array binding signal (z-score),[3],-0.102
same,glycan array binding signal (z-score),[4],-0.059
same,glycan array binding signal (z-score),[5],-0.064
same,glycan array binding signal (z-score),[6],-0.087
same,glycan array binding signal (z-score),[7],-0.067
same,glycan array binding signal (z-score),[8],-0.079
same,glycan array binding signal (z-score),[9],-0.063
same,glycan array binding signal (z-score),[10],-0.076
same,glycan array binding signal (z-score),[11],-0.061
same,glycan array binding signal (z-score),[12],-0.065
same,glycan array binding signal (z-score),[13],-0.042
same,glycan array binding signal (z-score),[14],-0.064
same,glycan array binding signal (z-score),[15],0.012
same,glycan array binding signal (z-score),[16],-0.045
same,glycan array binding signal (z-score),[17],-0.042
same,glycan array binding signal (z-score),[18],-0.072
same,glycan array binding signal (z-score),[19],-0.072

# From the supplement of paper PMC8728848
